Where a chain is given by its changes, count along the chain named. The list shows a part of the results.
T1: RBFOX1 RRM RbFoxmut (Fox-RRM*) (Homo sapiens, UniProt Q9NWB1 109-208, R118D;E147R;N151S;E152T)
T1 sequence: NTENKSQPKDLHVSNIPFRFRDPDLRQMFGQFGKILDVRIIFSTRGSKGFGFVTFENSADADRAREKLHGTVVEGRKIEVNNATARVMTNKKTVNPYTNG

B1: GCCAUAG (DNA:RNA)
RNA: GGGAGACCGGAAUUCAGAUUGUCCGCCAUAGUUAAAUCCCGUCGUAGCCACCA
DNA 1: CAATCTGAATTCCGGTCTCCC
DNA 2: TGGTGGCTACGACGGGATT
B2: AUGGCAA (DNA:RNA)
RNA: B1 RNA with G25A, C26U, C27G, A28G, U29C, G31A
DNA 1: CAATCTGAATTCCGGTCTCCC
DNA 2: TGGTGGCTACGACGGGATT
B3: AGGUGGU (DNA:RNA)
RNA: GGGAGACCGGAAUUCAGAUUGUCCAGGUGGUUUAAAUCCCGUCGUAGCCACCA
DNA 1: CAATCTGAATTCCGGTCTCCC
DNA 2: TGGTGGCTACGACGGGATT
B4: GUAGUAU (DNA:RNA)
RNA: B1 RNA with C26U, C27A, A28G, G31U
DNA 1: CAATCTGAATTCCGGTCTCCC
DNA 2: TGGTGGCTACGACGGGATT
B5: AUCUUUC (DNA:RNA)
RNA: B3 RNA with G26U, G27C, G29U, G30U, U31C
DNA 1: CAATCTGAATTCCGGTCTCCC
DNA 2: TGGTGGCTACGACGGGATT
B6: AGGAUAU (DNA:RNA)
RNA: B3 RNA with U28A, G29U, G30A
DNA 1: CAATCTGAATTCCGGTCTCCC
DNA 2: TGGTGGCTACGACGGGATT
B7: GGGUUUG (DNA:RNA)
RNA: B3 RNA with A25G, G29U, G30U, U31G
DNA 1: CAATCTGAATTCCGGTCTCCC
DNA 2: TGGTGGCTACGACGGGATT
B8: GAUGGAU (DNA:RNA)
RNA: B3 RNA with A25G, G26A, G27U, U28G, G30A
DNA 1: CAATCTGAATTCCGGTCTCCC
DNA 2: TGGTGGCTACGACGGGATT
B9: UCCGGUC (DNA:RNA)
RNA: B1 RNA with G25U, A28G, U29G, A30U, G31C
DNA 1: CAATCTGAATTCCGGTCTCCC
DNA 2: TGGTGGCTACGACGGGATT
B10: AGGCCCC (DNA:RNA)
RNA: B3 RNA with U28C, G29C, G30C, U31C
DNA 1: CAATCTGAATTCCGGTCTCCC
DNA 2: TGGTGGCTACGACGGGATT
B11: UCAAUUA (DNA:RNA)
RNA: B1 RNA with G25U, C27A, A30U, G31A
DNA 1: CAATCTGAATTCCGGTCTCCC
DNA 2: TGGTGGCTACGACGGGATT
B12: CGCUCUA (DNA:RNA)
RNA: B3 RNA with A25C, G27C, G29C, G30U, U31A
DNA 1: CAATCTGAATTCCGGTCTCCC
DNA 2: TGGTGGCTACGACGGGATT
B13: UACUACC (DNA:RNA)
RNA: B3 RNA with A25U, G26A, G27C, G29A, G30C, U31C
DNA 1: CAATCTGAATTCCGGTCTCCC
DNA 2: TGGTGGCTACGACGGGATT
B14: ACGCACU (DNA:RNA)
RNA: B3 RNA with G26C, U28C, G29A, G30C
DNA 1: CAATCTGAATTCCGGTCTCCC
DNA 2: TGGTGGCTACGACGGGATT
B15: CGGACCC (DNA:RNA)
RNA: B3 RNA with A25C, U28A, G29C, G30C, U31C
DNA 1: CAATCTGAATTCCGGTCTCCC
DNA 2: TGGTGGCTACGACGGGATT
B16: AAUCUAA (DNA:RNA)
RNA: B1 RNA with G25A, C26A, C27U, A28C, G31A
DNA 1: CAATCTGAATTCCGGTCTCCC
DNA 2: TGGTGGCTACGACGGGATT
B17: UGAGCCA (DNA:RNA)
RNA: B3 RNA with A25U, G27A, U28G, G29C, G30C, U31A
DNA 1: CAATCTGAATTCCGGTCTCCC
DNA 2: TGGTGGCTACGACGGGATT
B18: GAAAACA (DNA:RNA)
RNA: B1 RNA with C26A, C27A, U29A, A30C, G31A
DNA 1: CAATCTGAATTCCGGTCTCCC
DNA 2: TGGTGGCTACGACGGGATT
B19: GGGUCCU (DNA:RNA)
RNA: B3 RNA with A25G, G29C, G30C
DNA 1: CAATCTGAATTCCGGTCTCCC
DNA 2: TGGTGGCTACGACGGGATT
B20: CACAGUG (DNA:RNA)
RNA: B1 RNA with G25C, C26A, U29G, A30U
DNA 1: CAATCTGAATTCCGGTCTCCC
DNA 2: TGGTGGCTACGACGGGATT
B21: AACUGUA (DNA:RNA)
RNA: B3 RNA with G26A, G27C, G30U, U31A
DNA 1: CAATCTGAATTCCGGTCTCCC
DNA 2: TGGTGGCTACGACGGGATT
B22: CUCCUGG (DNA:RNA)
RNA: B1 RNA with G25C, C26U, A28C, A30G
DNA 1: CAATCTGAATTCCGGTCTCCC
DNA 2: TGGTGGCTACGACGGGATT
B23: AAACACG (DNA:RNA)
RNA: B3 RNA with G26A, G27A, U28C, G29A, G30C, U31G
DNA 1: CAATCTGAATTCCGGTCTCCC
DNA 2: TGGTGGCTACGACGGGATT
B24: GACCAUA (DNA:RNA)
RNA: B1 RNA with C26A, A28C, U29A, A30U, G31A
DNA 1: CAATCTGAATTCCGGTCTCCC
DNA 2: TGGTGGCTACGACGGGATT
B25: GCGGUUU (DNA:RNA)
RNA: B1 RNA with C27G, A28G, A30U, G31U
DNA 1: CAATCTGAATTCCGGTCTCCC
DNA 2: TGGTGGCTACGACGGGATT
B26: CGAUCUG (DNA:RNA)
RNA: B3 RNA with A25C, G27A, G29C, G30U, U31G
DNA 1: CAATCTGAATTCCGGTCTCCC
DNA 2: TGGTGGCTACGACGGGATT
B27: CCGUAUA (DNA:RNA)
RNA: B3 RNA with A25C, G26C, G29A, G30U, U31A
DNA 1: CAATCTGAATTCCGGTCTCCC
DNA 2: TGGTGGCTACGACGGGATT
B28: CGCUCUC (DNA:RNA)
RNA: B3 RNA with A25C, G27C, G29C, G30U, U31C
DNA 1: CAATCTGAATTCCGGTCTCCC
DNA 2: TGGTGGCTACGACGGGATT
B29: UCGUUGU (DNA:RNA)
RNA: B3 RNA with A25U, G26C, G29U
DNA 1: CAATCTGAATTCCGGTCTCCC
DNA 2: TGGTGGCTACGACGGGATT
B30: UCAAGGA (DNA:RNA)
RNA: B3 RNA with A25U, G26C, G27A, U28A, U31A
DNA 1: CAATCTGAATTCCGGTCTCCC
DNA 2: TGGTGGCTACGACGGGATT
B31: CUUAAUG (DNA:RNA)
RNA: B1 RNA with G25C, C26U, C27U, U29A, A30U
DNA 1: CAATCTGAATTCCGGTCTCCC
DNA 2: TGGTGGCTACGACGGGATT

Biological target: T1, RBFOX1 RRM RbFoxmut (Fox-RRM*)
Assay: EMSA; HiTS-Eq, 1 nM pool, 10 min; buffer printed only for the single-RNA assays: 10 mM Tris pH 7.5, 150 mM NaCl, 3.4 mM EDTA, 0.001% NP-40, 30 C
Details: tags: His6 N-terminal (pET28a); label: 5' 32P
Summary of the method: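 These values rest on relative association constants, computed from read-count changes of each RNA species versus the control reaction and normalised to the cognate motif. Reads came from free RNA recovered by 8% native PAGE after purified RbFox RRM (wild type or mutant) at increasing concentrations was equilibrated for 10 min in 50 µL with 1 nM of a 5′-radiolabelled pool with 7 randomized nucleotides and DNA-annealed flanks.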

Binder | binding signal
B1 | 0.107 KA relative to UGCAUGU
B2 | 0.0904 KA relative to UGCAUGU
B3 | 0.146 KA relative to UGCAUGU
B4 | 0.184 KA relative to UGCAUGU
B5 | 0.0643 KA relative to UGCAUGU
B6 | 0.106 KA relative to UGCAUGU
B7 | 0.741 KA relative to UGCAUGU
B8 | 0.0887 KA relative to UGCAUGU
B9 | 0.101 KA relative to UGCAUGU
B10 | 0.057 KA relative to UGCAUGU
B11 | 0.098 KA relative to UGCAUGU
B12 | 0.0927 KA relative to UGCAUGU
B13 | 0.0724 KA relative to UGCAUGU
B14 | 0.0999 KA relative to UGCAUGU
B15 | 0.0933 KA relative to UGCAUGU
B16 | 0.0586 KA relative to UGCAUGU

Binder | binding signal
B17 | 0.116 KA relative to UGCAUGU
B18 | 0.0743 KA relative to UGCAUGU
B19 | 0.116 KA relative to UGCAUGU
B20 | 0.102 KA relative to UGCAUGU
B21 | 0.169 KA relative to UGCAUGU
B22 | 0.105 KA relative to UGCAUGU
B23 | 0.0961 KA relative to UGCAUGU
B24 | 0.0749 KA relative to UGCAUGU
B25 | 0.0954 KA relative to UGCAUGU
B26 | 0.076 KA relative to UGCAUGU
B27 | 0.104 KA relative to UGCAUGU
B28 | 0.0644 KA relative to UGCAUGU
B29 | 0.157 KA relative to UGCAUGU
B30 | 0.0635 KA relative to UGCAUGU
B31 | 0.126 KA relative to UGCAUGU

Reference: article PMC9911399, “Two distinct binding modes provide the RNA-binding protein RbFox with extraordinary sequence specificity”
